Results are given in words; binding and its absence hold for the method and conditions named. Binding seen in cells or lysates may run through a third protein. Some binding calls cover weakened binding; strength is not graded here. Sequences can lack the tags named with a protein.
Columns and labels:
[1] = biological target: GST-Dal80 (full-length) (S. cerevisiae) (UniProt P26343); experiment: pull-down; GST fusions of full-length repressors immobilised on GSH sepharose, incubated with protein extracts from yeast transformants containing epitope-tagged Sin3 length variants; anti-HA blot (Fig. 2); only the target purified
[2] = biological target: T1, GST-Yhp1 (full-length) (S. cerevisiae) (UniProt Q04116); experiment: as above
T1 sequence: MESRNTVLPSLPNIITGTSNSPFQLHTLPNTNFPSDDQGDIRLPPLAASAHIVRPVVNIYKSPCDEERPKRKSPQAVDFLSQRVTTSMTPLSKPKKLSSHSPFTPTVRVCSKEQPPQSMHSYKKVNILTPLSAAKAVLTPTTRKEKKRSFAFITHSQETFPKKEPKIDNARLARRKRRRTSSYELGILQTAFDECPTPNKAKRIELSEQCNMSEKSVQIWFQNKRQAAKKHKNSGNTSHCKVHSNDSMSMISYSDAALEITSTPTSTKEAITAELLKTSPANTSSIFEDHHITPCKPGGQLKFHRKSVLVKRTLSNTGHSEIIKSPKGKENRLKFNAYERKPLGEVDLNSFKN

By UniProt entry, the sequences of proteins in these tests, tags left out.
UniProt P26343: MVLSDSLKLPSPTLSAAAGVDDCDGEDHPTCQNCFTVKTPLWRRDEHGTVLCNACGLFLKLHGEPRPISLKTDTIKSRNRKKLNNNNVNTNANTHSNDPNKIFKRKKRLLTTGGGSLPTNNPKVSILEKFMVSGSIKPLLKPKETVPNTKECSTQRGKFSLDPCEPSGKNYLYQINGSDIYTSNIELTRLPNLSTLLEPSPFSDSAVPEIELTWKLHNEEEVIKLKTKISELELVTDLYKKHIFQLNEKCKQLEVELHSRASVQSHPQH

B1: epitope-tagged Sin3 length variant 1-300 (PAH1; pCW83) (domain or fragment, UniProt P22579 1-300)
chain: MSQVWHNSNSQSNDVATSNDATGSNERNEKEPSLQGNKPGFVQQQQRITLPSLSALSTKEEDRRDSNGQQALTSHAAHILGYPPPHSNAMPSIATDSALKQPHEYHPRPKSSSSSPSINASLMNAGPAPLPTVGAASFSLSRFDNPLPIKAPVHTEEPKSYNGLQEEEKATQRPQDCKEVPAGVQPADAPDPSSNHADANDDNNNNENSHDEDADYRPLNVKDALSYLEQVKFQFSSRPDIYNLFLDIMKDFKSQAIDTPGVIERVSTLFRGYPILIQGFNTFLPQGYRIECSSNPDDPI
Q: Which binding [1] does the source give for B1 here?
A: binds

Q: And the binding [2]?
A: binds

— paper PMC10163088
